Assay results taken from paper PMC4336329 (PLoS ONE, 2015).
Out of some 310,000 compounds screened, about 2,200 (0.71%) showed an effect of 50% or more. Effects have a minus sign here. This is one part of the list.

target: human ether-à-go-go-related gene (hERG) potassium channel (human, UniProt Q12809); experiment: primary screen, population patch clamp on CHO cells stably expressing hERG
Sequence (Q12809 whole entry, looked up): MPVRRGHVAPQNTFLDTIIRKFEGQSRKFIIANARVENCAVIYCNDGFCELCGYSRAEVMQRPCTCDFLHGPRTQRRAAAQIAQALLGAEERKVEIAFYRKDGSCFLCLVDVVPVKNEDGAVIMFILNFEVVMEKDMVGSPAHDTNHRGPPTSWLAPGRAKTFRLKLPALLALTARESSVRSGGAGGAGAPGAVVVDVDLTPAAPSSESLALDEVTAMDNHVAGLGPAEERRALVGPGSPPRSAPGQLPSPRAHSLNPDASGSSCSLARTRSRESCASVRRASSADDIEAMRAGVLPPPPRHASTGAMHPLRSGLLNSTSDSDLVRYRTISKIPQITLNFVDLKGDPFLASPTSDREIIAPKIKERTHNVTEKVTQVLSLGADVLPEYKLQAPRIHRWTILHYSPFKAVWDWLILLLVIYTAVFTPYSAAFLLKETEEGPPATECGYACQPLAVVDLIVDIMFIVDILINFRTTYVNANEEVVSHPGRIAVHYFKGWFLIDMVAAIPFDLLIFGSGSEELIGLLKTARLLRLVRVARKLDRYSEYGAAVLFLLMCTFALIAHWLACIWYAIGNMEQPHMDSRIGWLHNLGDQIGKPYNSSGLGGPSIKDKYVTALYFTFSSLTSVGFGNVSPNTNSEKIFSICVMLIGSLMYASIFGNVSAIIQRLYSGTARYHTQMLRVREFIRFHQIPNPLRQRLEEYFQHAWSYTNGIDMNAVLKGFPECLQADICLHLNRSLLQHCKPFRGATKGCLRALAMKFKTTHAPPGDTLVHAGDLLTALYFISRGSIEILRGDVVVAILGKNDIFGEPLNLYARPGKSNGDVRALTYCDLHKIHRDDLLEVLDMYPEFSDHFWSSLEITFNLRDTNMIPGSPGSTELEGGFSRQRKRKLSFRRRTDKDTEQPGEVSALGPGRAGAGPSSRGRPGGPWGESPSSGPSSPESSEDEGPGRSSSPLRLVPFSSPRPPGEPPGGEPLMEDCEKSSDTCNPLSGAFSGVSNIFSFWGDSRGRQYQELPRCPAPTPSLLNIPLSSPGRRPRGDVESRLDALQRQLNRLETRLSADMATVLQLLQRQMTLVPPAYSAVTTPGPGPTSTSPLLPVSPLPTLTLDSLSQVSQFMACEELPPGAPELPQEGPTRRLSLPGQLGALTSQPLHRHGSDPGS

SMILES | hERG current change (%, negative = inhibition) at 1uM
COC(=O)c1c(NC(=O)CSc2nnc(Cn3nnc4ccccc43)n2C)sc(C)c1C | -1.33%
O=C(COC(=O)c1ccccc1Nc1ccccc1)Nc1ccccc1 | 15.5%
CC(NC(=S)NC(=O)c1ccccc1Br)c1ccccc1 (stereo not drawn) | 14.5%
CC(=O)c1ccccc1OCCOc1ncnc2sccc12 | 3.78%
COC(=O)C[C@H]1c2ccccc2S(=O)(=O)N1C(C)C | 12%
CCn1nc(C)c(NC(=O)c2cnn3c(C(F)F)cc(-c4ccccc4)nc23)c1C | 10.3%
Cc1cccc(CS(=O)(=O)c2nnc([C@H](Cc3ccccc3)NC(=O)OC(C)(C)C)o2)c1 | 2.29%
COCCCNC(=O)CSc1nc2cc(S(=O)(=O)N3CCCCC3)ccc2o1 | 11.5%
CCN(CC)S(=O)(=O)c1ccc2c(c1)nc(CCC(=O)O)n2C | 6.09%
C/C(CC(=O)Nc1ccc2c(c1)OCCO2)=N\NC(=O)C(=O)Nc1ccccc1C | 3.74%
COc1ccc(-n2c(-c3cccc(C)c3[N+](=O)[O-])n[nH]c2=S)cc1 | 7.34%
CSc1ccccc1C(=O)C1CCCN(C(=O)c2ccc(N3CCOCC3)cc2)C1 (stereo not drawn) | 6.64%
O=S(=O)(NCc1ccc(Cl)cc1)c1cnc[nH]1 | 6.55%
Cc1cc(C)n(C(=O)COc2ccc(Cl)cc2Cl)n1 | 6.55%
C=CCn1c(SCC(=O)Nc2nncs2)nnc1-c1ccco1 | 13%
CSCCC(NS(=O)(=O)c1ccc(C)cc1)C(=O)N1CCN(C(C)=O)CC1 (stereo not drawn) | 10.6%
O=C(Cc1ncc(C(F)(F)F)cc1Cl)Nc1ccc(F)cc1 | 13%
Cc1ccc(-c2csc3nc(SCC(=O)Nc4ccc(Cl)c(C(=O)O)c4)[nH]c(=O)c23)cc1 | 12.1%
Cc1noc(C)c1C(=O)N1CCN(S(=O)(=O)c2cccs2)CC1 | 16.6%
Cc1ccc(OCC(=O)Nc2ccccc2C(=O)N2CCCC2)cc1 | -2.29%
CC(C)(C)c1ccc(C(=O)n2cnc3ccccc32)cc1 | 16.8%
CCCCN(CC)C(=O)Cc1ccccc1OC | 18%
CN(C)C(=O)Cn1nc(-c2ccccc2)c2ccccc2c1=O | 9.36%

SMILES | hERG current change (%, negative = inhibition) at 1uM
Cc1cccc(NC(=O)CSc2nnc(NC(=O)c3ccc(S(=O)(=O)N4CCOCC4)cc3)s2)c1C | 6.13%
COC(=O)c1c(C(=O)OC)c(-c2ccc(F)cc2)n2c1CS(=O)C2 (stereo not drawn) | 20%
Fc1ccccc1-c1nc(-c2ccc(Cl)cc2)no1 | 4.28%
Cc1cc(NS(=O)(=O)c2ccc(NC(=O)CCc3ccccc3)cc2)no1 | 10.8%
Cn1nccc1C(=O)N1CCN(c2cccc(Cl)c2)CC1 | 21.2%
COc1ccc(C)cc1N(CC(=O)Nc1cccnc1)S(=O)(=O)c1ccccc1 | 0.471%
CC(=O)c1c(C)nc(-c2cccc([N+](=O)[O-])c2)n1O | 6.98%
Cc1ccc(-c2csc(N3CCC[C@@H]3C(=O)NCCn3c(-c4ccncc4)nc4ccccc43)n2)cc1 | 8.69%
COc1ccccc1N(Cc1ccccc1)S(=O)(=O)c1cccc(C(=O)Nc2ncccc2C)c1 | 3.97%
CC(=O)c1ccccc1N(C(=O)c1ccco1)C(C(=O)NC1CCCC1)c1ccc(N2CCOCC2)cc1 (stereo not drawn) | 8.73%
CCN(Cc1nc(-c2ccccc2)no1)C(=O)c1ccco1 | 5.46%
O=C(O)CC(Cn1[nH]nnc1=S)c1ccccc1 (stereo not drawn) | -1.3%
c1ccc(/N=C2\N=C(Nc3ccccn3)c3ccccc32)nc1 | -6.9%
NS(=O)(=O)c1cccc(NC(=O)CSc2nnnn2-c2ccccc2)c1 | 13.9%
CN(CC(=O)Nc1cccc(F)c1)C(=O)c1ccc(N2CCCCC2)c([N+](=O)[O-])c1 | 6.4%
COc1cccc(NC(=O)CCS(=O)(=O)c2cccs2)c1 | 15.4%
COc1ccc(-c2cc(C(F)(F)F)nc(SCCC(=O)N3CCCC3)n2)cc1 | 7.56%
COc1cccc(CN(C)C(=O)CCc2nnc(-c3ccsc3)o2)c1 | 9.53%
CCc1cc(-c2[nH]ncc2-c2nc3ccccc3n2C)c(O)cc1O | -11.1%
NC(=O)CC(NC(=O)c1ccc(Br)cc1)c1ccc(N2CCN(c3ccccn3)CC2)c([N+](=O)[O-])c1 (stereo not drawn) | 4.26%
COc1ccc2cc3cc(C(=O)N4CCN(c5ccccc5)CC4)oc3nc2c1 | 7.44%
CCN(c1ccccc1)S(=O)(=O)c1ccc(Cl)c(NC(=O)CSc2nnc(C)s2)c1 | 10.5%
